25 compounds from patent US20260200947A1, “FUSED CYCLIC COMPOUNDS AND USE THEREOF” (Jacobio Pharmaceuticals Co., Ltd., priority 2022, published 2026) can be followed below.

Like-named read-outs stand apart in the source and are kept apart here.

For one experiment, the target named is GppNp-KRAS G12D (Homo sapiens, UniProt P01116, G12D). Kind of experiment: biochemical.
In experiment [1] the test system is AGS cells (K-Ras G12D).
The target of a further experiment is GppNp-KRAS G12V (Homo sapiens, UniProt P01116, G12V). Kind of experiment: biochemical.
Experiment [2] concerns Capan-2 cells (K-Ras G12V).
The subject of experiment [3] is AGS cells (K-Ras G12D). The source holds these as a separate data set.
For experiment [4], the system named is AsPC-1 cells (K-Ras G12D).

By IC50 is commonly meant the point on the concentration scale where inhibition reaches its midpoint. A higher IC50 goes with lower potency. Consider `C#Cc1c(F)ccc2cc(N)cc(-c3nc4c5c(nc(OC[C@@]67CCCN6C[C@H](F)C7)nc5c3F)N3CCC(F)CC(F)C3N4C)c12` (some centres unmarked) [Compound 115], for which the IC50 against GppNp-KRAS G12D came to 67.4 nM; in the experiment with AGS cells (K-Ras G12D) [1], 3.4 nM; against GppNp-KRAS G12V, 316 nM; in experiment [2] it was 5.16 nM.
Turning to `C#Cc1c(F)ccc2cc(N)cc(-c3nc4c5c(nc(OC[C@@]67CCCN6C[C@H](F)C7)nc5c3F)N3[C@@H](C)CCO[C@H](C)[C@H]3N4C)c12` [Compound 122], the half-maximal inhibitory concentration (IC50) on GppNp-KRAS G12D was determined as 174 nM; in the experiment with SW620 cells (K-Ras G12V), 24.8 nM; against GppNp-KRAS G12V, 169 nM; in the experiment with AGS cells (K-Ras G12D) [3], 25.9 nM; in experiment [4], 114 nM.
Regarding `CN(C)CC1(COc2nc3c4c(nc(-c5ccc(F)c6sc(N)c(C#N)c56)c(F)c4n2)N(C)[C@@H]2COCCCN32)CC1(F)F` (some centres unmarked) [Compound 164], the IC50 at GppNp-KRAS G12D was found to be 274 nM; in the experiment on AGS cells (K-Ras G12D) [1], 106 nM; against GppNp-KRAS G12V it was 750 nM; in experiment [2], 33.3 nM.
For the compound `C#Cc1c(F)ccc2cc(N)cc(-c3nc4c5c(nc(OC(C)[C@@]67CCCN6C[C@H](F)C7)nc5c3F)N3CCCOCC3N4C)c12` (some centres unmarked) [Compound 150], the IC50 was greater than 1000 nM against GppNp-KRAS G12D, 50.9 nM in the experiment on AGS cells (K-Ras G12D) [1], greater than 1000 nM at GppNp-KRAS G12V and 54.1 nM in experiment [2].
As to `C#Cc1c(F)ccc2cc(N)cc(-c3nc4c5c(nc(OC[C@@]67CCCN6C[C@H](F)C7)nc5c3F)N3CC=CCCC3N4C)c12` (some centres unmarked) [Compound 99], the IC50 against GppNp-KRAS G12D came to 262 nM; at GppNp-KRAS G12V it was 735 nM.
For `C#Cc1c(F)ccc2cc(N)cc(-c3nc4c5c(nc(OC[C@@]67CCCN6C[C@H](F)C7)nc5c3F)N3CC(=C)COC[C@H]3N4C)c12` [Compound 138], the IC50 at GppNp-KRAS G12D is 150 nM; in the experiment on AGS cells (K-Ras G12D) [1], 26.7 nM; against GppNp-KRAS G12V it was 469 nM; in experiment [2], 5.27 nM.
For the compound `C#Cc1c(F)ccc2cc(N)cc(-c3nc4c5c(nc(OC[C@@]67CCCN6C[C@H](F)C7)nc5c3F)N3CC[C@@H](O)CC[C@H]3N4C)c12` [Compound 84], the IC50 is 115 nM against GppNp-KRAS G12D and 146 nM against GppNp-KRAS G12V.
`C#Cc1c(F)ccc2cc(N)cc(-c3nc4c5c(nc(OC[C@@]67CCCN6C[C@H](F)C7)nc5c3F)N3CCCC[C@@H](F)C3N4C)c12` (some centres unmarked) [Compound 49]: the figures for the IC50 at GppNp-KRAS G12D and against GppNp-KRAS G12V were 48.1 nM and 99.8 nM, respectively.
`N#Cc1c(N)sc2c(F)ccc(-c3nc4c5c(nc(OC[C@@]67CCCN6C[C@H](F)C7)nc5c3F)N3CCCOC[C@H]3CO4)c12` [Compound 160]: the IC50 at GppNp-KRAS G12D was 74.8 nM; in the experiment on AGS cells (K-Ras G12D) [1], 39.9 nM; on GppNp-KRAS G12V, 220 nM; in experiment [2], 62 nM.
For the compound `C#Cc1c(F)ccc2cc(N)cc(-c3nc4c5c(nc(OCC6(CN7CCOCC7)CC6(F)F)nc5c3F)N3CCCOC[C@H]3N4C)c12` (some centres unmarked) [Compound 165], the IC50 against GppNp-KRAS G12D was greater than 1000 nM; in the experiment on AGS cells (K-Ras G12D) [1], 87.9 nM; against GppNp-KRAS G12V, greater than 1000 nM; in experiment [2], 32 nM.
Consider `C#Cc1c(F)ccc2cc(N)cc(-c3nc4c5c(nc(OC[C@@]67CCCN6C[C@H](F)C7)nc5c3F)N3CC(F)CCCC3N4C)c12` (some centres unmarked) [Compound 47], for which the IC50 on GppNp-KRAS G12D worked out at 71.8 nM; with SW620 cells (K-Ras G12V), 7.33 nM; on GppNp-KRAS G12V, 163 nM; in the experiment on AGS cells (K-Ras G12D) [3] it was 7.82 nM; in experiment [4] it was 39.9 nM.
Turning to `CSc1cccc2cc(N)cc(-c3nc4c5c(nc(OC[C@@]67CCCN6C[C@H](F)C7)nc5c3F)N3CCCOC[C@H]3N4C)c12` [Compound 149], the IC50 on GppNp-KRAS G12D was greater than 1000 nM; at GppNp-KRAS G12V it was greater than 1000 nM; in experiment [2], 77.8 nM.
As for `C#Cc1c(F)ccc2cc(N)cc(-c3nc4c5c(nc(OC[C@@]67CCCN6C[C@H](F)C7)nc5c3F)N3CCCC/C(=C\F)C3N4C)c12` (some centres unmarked) [Compound 85], the IC50 at GppNp-KRAS G12D and at GppNp-KRAS G12V was greater than 1000 nM in each case.
Regarding `C#Cc1c(F)ccc2cc(N)cc(-c3nc4c5c(nc(OC[C@@]67CCCN6C[C@H](F)C7)nc5c3F)N3CC[C@H](F)CC[C@H]3N4C)c12` [Compound 83], the figures for the IC50 against GppNp-KRAS G12D and at GppNp-KRAS G12V were 23.1 nM and 104 nM, respectively.
For `C#Cc1c(F)ccc2cc(N)cc(-c3nc4c5c(nc(OC[C@@]67CCCN6C[C@H](F)C7)nc5c3F)N3CCCCC(C)C3N4C)c12` (some centres unmarked) [Compound 121], the half-inhibitory concentration (IC50) at GppNp-KRAS G12D was 170 nM; in the experiment on AGS cells (K-Ras G12D) [1], 9.25 nM; against GppNp-KRAS G12V, 707 nM; in experiment [2], 8.38 nM.
Turning to `C#Cc1c(F)ccc2cc(N)cc(-c3nc4c5c(nc(OC[C@@]67CCCN6C[C@H](F)C7)nc5c3F)N3CC(C#N)COCC3N4C)c12` (some centres unmarked) [Compound 172], the IC50 at GppNp-KRAS G12D is greater than 1000 nM; at GppNp-KRAS G12V, greater than 1000 nM; in experiment [2], 56.4 nM.
As for `C#Cc1c(F)ccc2cc(N)cc(-c3nc4c5c(nc(OCC6(CN7CC8CC8C7)CC6)nc5c3F)N3CCCOCC3N4C)c12` (centres unmarked) [Compound 117], the IC50 against GppNp-KRAS G12D is 702 nM; with AGS cells (K-Ras G12D) [1], 65.1 nM; on GppNp-KRAS G12V, 884 nM; in experiment [2], 18.7 nM.
On to `C#Cc1c(F)ccc2cc(N)cc(-c3nc4c5c(nc(OC[C@@]67CCCN6C[C@H](F)C7)nc5c3F)N3[C@@H](C)CCCC[C@H]3N4C)c12` [Compound 88], for which the IC50 was 23.5 nM against GppNp-KRAS G12D and 120 nM against GppNp-KRAS G12V.
For `N#Cc1c(N)sc2c(F)ccc(-c3c(C4CC4)c4c5c(nc(OC[C@@]67CCCN6C[C@H](F)C7)nc5c3F)N3CCCOC[C@H]3CO4)c12` [Compound 132], the IC50 at GppNp-KRAS G12D is 78.4 nM; against GppNp-KRAS G12V, 224 nM; in experiment [2], 154 nM.
`C[C@H]1CCOC[C@H]2N(C)c3nc(-c4cc(N)cc5ccc(F)c(Cl)c45)c(F)c4nc(OC[C@@]56CCCN5C[C@H](F)C6)nc(c34)N12` [Compound 120]: the IC50 against GppNp-KRAS G12D came out at 134 nM; in the experiment with SW620 cells (K-Ras G12V), 39 nM; against GppNp-KRAS G12V it was 467 nM; with AGS cells (K-Ras G12D) [3] it was 12.1 nM; in experiment [4], 47.2 nM.
With `C#Cc1c(F)ccc2cc(N)cc(-c3nc4c5c(nc(OC[C@@]67CCCN6C[C@H](F)C7)nc5c3F)N3[C@@H](COCC[C@@H]3C3CC3)CO4)c12` [Compound 64], the IC50 at GppNp-KRAS G12D came out at 75.7 nM; with SW620 cells (K-Ras G12V), 4.97 nM; on GppNp-KRAS G12V it was 75.1 nM; in the experiment on AGS cells (K-Ras G12D) [3] it was 0.902 nM; in experiment [4], 12.1 nM; in experiment [2] it was 0.785 nM.
Regarding `C#Cc1cccc2cc(N)cc(-c3nc4c5c(nc(OC[C@@]67CCCN6C[C@H](F)C7)nc5c3F)N3CCCOC[C@H]3N4C)c12` [Compound 51], the IC50 was found to be 64.4 nM at GppNp-KRAS G12D and 103 nM against GppNp-KRAS G12V.
Turning to `C#Cc1c(F)ccc2cc(N)cc(-c3nc4c5c(nc(OC[C@@]67CCCN6C[C@H](F)C7)nc5c3F)N3C5CC5COC[C@H]3CO4)c12` (some centres unmarked) [Compound 35], the IC50 on GppNp-KRAS G12D turned out to be 155 nM; in the experiment with AGS cells (K-Ras G12D) [1] it was 17.1 nM; with SW620 cells (K-Ras G12V), 17.7 nM; against GppNp-KRAS G12V, 637 nM; with AGS cells (K-Ras G12D) [3], 38 nM; in experiment [4] it was 667 nM.
Take `C#Cc1c(F)ccc2cc(N)cc(-c3nc4c5c(nc(OC[C@@]67CCCN6C[C@H](F)C7)nc5c3F)N3CCOCC3N4C3CC3)c12` (some centres unmarked) [Compound 96]: the IC50 on GppNp-KRAS G12D and against GppNp-KRAS G12V was greater than 1000 nM throughout.
With `C#Cc1c(F)ccc2cc(N)cc(-c3nc4c5c(nc(O[C@@H](C)[C@@H]6[C@@H](OC)CCN6C)nc5c3F)N3CCCOC[C@H]3N4C)c12` [Compound 162], the IC50 against GppNp-KRAS G12D is 928 nM; in the experiment with SW620 cells (K-Ras G12V), 139 nM; on GppNp-KRAS G12V, greater than 1000 nM; in the experiment on AGS cells (K-Ras G12D) [3] it was 93.9 nM; in experiment [4], 538 nM.
